Assay results from the supplement of paper PMC9446081.
Screen size: about 39,000 compounds; about 220 (0.56%) showed activity. This is one part of the list.

Tested on: Escherichia coli K-12 BW25113
Assay: relative growth (OD600 normalised to plate interquartile mean) (fraction); higher = less growth inhibition, active = 0.2 or less
Settings: 50 µM; LB; incubation time: overnight (16-24 h)
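Also: static incubation at 37 °C against the wild-type strain, values averaged over two biological replicates.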

SMILES | relative growth
COc1ccc(S(=O)(=O)N[C@H]2C=C[C@@H](CC(=O)NCCc3ccncc3)O[C@H]2CO)cc1 | inactive: 0.977
CN(C)[C@@H]1C(=O)[C@@H](C(N)=O)C(=O)[C@@]2(O)C(=O)[C@H]3C(=O)c4c(O)cccc4C[C@H]3C[C@@H]12 | inactive: 0.972
C[S+](CC[C@H](N)C(=O)O)C[C@H]1O[C@@H](n2cnc3c(N)ncnc32)[C@H](O)[C@@H]1O (some centres not stated) | inactive: 0.996
C=CCN(C(=O)[C@H]1N(CCOCCO)C(=O)[C@H]2[C@H](C(=O)O)[C@@H]3C=C[C@@]21O3)C(C)(C)C | inactive: 1.02
CO[C@@]12[C@@H]3N[C@@H]3CN1C1=C(C(=O)C(N)=C(C)C1=O)[C@@H]2COC(N)=O | active: 0.0651
C[C@H](CO)N1C[C@H](C)[C@H](CN(C)S(=O)(=O)c2ccccc2)Oc2ccc(NC(=O)Cn3cnnn3)cc2C1=O | inactive: 1
CO[C@H](CN(C)S(=O)(=O)c1cccc(Cl)c1)[C@H](C)CN([C@@H](C)CO)S(=O)(=O)c1ccc(Cl)cc1 | inactive: 1.05
c1ccc2c(c1)-c1ccc3ccc4cccc5cc-2c1c3c45 | inactive: 1.07
C[C@H](CO)N1C[C@H](C)[C@@H](CN(C)Cc2ccccc2)Oc2ccc(NC(=O)Nc3cccc4ccccc34)cc2CC1=O | inactive: 0.99
C[C@H]1CCCCO[C@@H](CN(C)Cc2ccncc2)[C@@H](C)CN([C@@H](C)CO)C(=O)c2cc(NC(=O)c3ccccc3)ccc2O1 | inactive: 0.987
COc1ccc(S(=O)(=O)Nc2cccc3c2O[C@H](CN(C)Cc2ccncc2)[C@@H](C)CN([C@H](C)CO)C3=O)cc1 | inactive: 0.947
C[C@H](CO)N1C[C@H](C)[C@H](CN(C)S(=O)(=O)c2ccc(F)cc2)Oc2ccc(NS(=O)(=O)c3cn(C)cn3)cc2C1=O | inactive: 1.02
COCC(=O)N1C[C@@H](C)[C@H](OC)CN(C)C(=O)c2cc(NC(=O)c3ccc(F)cc3)ccc2OC[C@@H]1C | inactive: 1.02
COc1ccc(S(=O)(=O)N(C)C[C@@H]2Oc3ncc(C#CC4(O)CCCC4)cc3C(=O)N([C@@H](C)CO)C[C@H]2C)cc1 | inactive: 0.976
COCC(=O)N1C[C@@H](C)[C@@H](OC)CN(C)C(=O)c2cc(NC(=O)c3cc(C)on3)ccc2OC[C@@H]1C | inactive: 1.02
COCC(=O)N(C)C[C@@H]1Oc2cc(C#CC(C)(C)O)ccc2S(=O)(=O)N([C@@H](C)CO)C[C@@H]1C | inactive: 1.01
O=C(O)c1ccc(-c2ccco2)s1 | inactive: 0.985
Cc1ccc(S(=O)(=O)N(C)C[C@H]2OCCCC[C@@H](C)Oc3ccc(NS(C)(=O)=O)cc3C(=O)N([C@@H](C)CO)C[C@H]2C)cc1 | inactive: 1.02
CC(C)NC(=O)N(C)C[C@H]1Oc2ccc(NS(=O)(=O)c3ccccc3)cc2C(=O)N([C@@H](C)CO)C[C@H]1C | inactive: 0.979

SMILES | relative growth
C[C@@H]1CCCCO[C@@H](CN(C)C(=O)CCC(F)(F)F)[C@@H](C)CN([C@H](C)CO)C(=O)c2cc(NC(=O)CCC(F)(F)F)ccc2O1 | inactive: 0.969
CCOC(=O)N(C)C[C@H]1OCc2cn(nn2)CCCC(=O)N([C@@H](C)CO)C[C@H]1C | inactive: 0.957
C[C@@H]1CCCCO[C@@H](CN(C)Cc2ccc3c(c2)OCO3)[C@H](C)CN([C@@H](C)CO)C(=O)c2cc(NC(=O)Nc3ccc4c(c3)OCO4)ccc2O1 | inactive: 1.03
COc1ccc(CN(C)C[C@H]2OCCCC[C@@H](C)Oc3ccc(NS(=O)(=O)c4ccc(C)cc4)cc3C(=O)N([C@H](C)CO)C[C@@H]2C)cc1 | inactive: 1
C[C@@H]1CCCCO[C@@H](CN(C)S(=O)(=O)c2ccccc2)[C@@H](C)CN([C@H](C)CO)C(=O)c2cc(NS(=O)(=O)c3cn(C)cn3)ccc2O1 | inactive: 0.942
O=C(CCNNC(=O)c1ccncc1)NCc1ccccc1 | inactive: 1.01
C[C@@H]1CN([C@@H](C)CO)S(=O)(=O)c2ccc(C3=CCCC3)cc2O[C@@H]1CN(C)S(=O)(=O)c1ccc(F)cc1 | inactive: 1
COc1ccc(CN(C)C[C@@H]2OCCCC[C@H](C)Oc3ccc(NC(=O)C4CCCCC4)cc3C(=O)N([C@H](C)CO)C[C@@H]2C)cc1 | inactive: 0.998
C[C@@H]1CN([C@H](C)CO)C(=O)Cc2cc(NC(=O)c3ccncc3)ccc2O[C@H]1CN(C)S(=O)(=O)c1cn(C)cn1 | inactive: 0.982
C[C@@H]1CCCCO[C@@H](CN(C)CC2CCCCC2)[C@H](C)CN([C@H](C)CO)C(=O)c2cc(NS(=O)(=O)c3ccc(Cl)cc3)ccc2O1 | inactive: 0.991
COc1ccc(CN(C)C[C@@H]2OCCCC[C@@H](C)Oc3ccc(NS(=O)(=O)c4c(C)noc4C)cc3C(=O)N([C@H](C)CO)C[C@H]2C)cc1 | inactive: 0.987
O=C1/C(=C/c2cn(-c3ccccc3)nc2-c2ccc(OCc3ccccc3F)cc2)SC(=S)N1CCS(=O)(=O)O | inactive: 1
C[C@H](CO)N1C[C@H](C)[C@H](CN(C)CC2CCCCC2)Oc2ccc(NC(=O)Nc3ccc(C(F)(F)F)cc3)cc2C1=O | inactive: 0.906
CC(=O)O[C@H]1C[C@@H]2CC[C@@H]3[C@H](CC[C@@]4(C)[C@H]3C[C@H]([N+]3(C)CCCCC3)[C@@H]4OC(C)=O)[C@@]2(C)C[C@@H]1N1CCCCC1 | inactive: 1
CC(=O)c1ccc[nH]1 | inactive: 1.13
Cc1ccc(S(=O)(=O)N(C)C[C@H]2OCCCC[C@@H](C)Oc3ccc(NC(=O)C4CCCCC4)cc3C(=O)N([C@H](C)CO)C[C@H]2C)cc1 | inactive: 0.976
COc1ccc(S(=O)(=O)N(C)C[C@H]2Oc3ccc(NC(=O)Cn4cnnn4)cc3CC(=O)N([C@H](C)CO)C[C@@H]2C)cc1 | inactive: 0.99
C=CCOC(=O)[C@@H]1[C@H]2C(=O)O[C@H](c3ccccc3)[C@H](c3ccccc3)N2[C@H](c2ccc(OCCOC(=O)NCCCCCC(=O)NO)cc2)[C@]12C(=O)Nc1ccc(I)cc12 | inactive: 1.01
C[C@@H]1CCCCO[C@@H](CN(C)C(=O)C2CCCCC2)[C@H](C)CN([C@H](C)CO)C(=O)c2cc(NC(=O)Nc3ccc4c(c3)OCO4)ccc2O1 | inactive: 1.02

SMILES | relative growth
C[C@@H]1CN([C@@H](C)CO)C(=O)Cc2cc(NS(=O)(=O)c3ccc(Cl)cc3)ccc2O[C@H]1CN(C)Cc1ccc(-c2ccccc2)cc1 | inactive: 0.99
COc1ccc(S(=O)(=O)Nc2ccc3c(c2)C(=O)N([C@@H](C)CO)C[C@@H](C)[C@@H](CN(C)S(=O)(=O)c2ccc(OC)cc2)O3)cc1 | inactive: 1.05
CNC[C@H]1OCCCC[C@H](C)Oc2ccc(NC(=O)Nc3ccc(C(F)(F)F)cc3)cc2C(=O)N([C@H](C)CO)C[C@@H]1C | inactive: 1.01
Cc1noc(C)c1S(=O)(=O)N(C)C[C@H]1Oc2ccc(NS(=O)(=O)c3ccccc3)cc2CC(=O)N([C@H](C)CO)C[C@@H]1C | inactive: 1.01
CC(C)NC(=O)N(C)C[C@@H]1Oc2c(NC(=O)C3CCCCC3)cccc2C(=O)N([C@@H](C)CO)C[C@H]1C | inactive: 1
C[C@@H]1CN([C@@H](C)CO)C(=O)c2cc(Br)cnc2O[C@H]1CN(C)C(=O)CN1CCOCC1 | inactive: 1
COc1ccc(-c2cnc3c(c2)C(=O)N([C@@H](C)CO)C[C@H](C)[C@H](CN(C)S(=O)(=O)c2ccc(OC)cc2)O3)cc1 | inactive: 1.05
C[C@@H]1CN([C@H](C)CO)C(=O)c2cccc(NC(=O)Nc3ccccc3)c2O[C@@H]1CN(C)Cc1ccc(C(F)(F)F)cc1 | inactive: 0.989
COc1ccc2c3c([nH]c2c1)[C@@H](CO)N(C[C@]13CCN(CC1)CC1CCCC1)C(=O)Nc1cccc(c1)F | inactive: 0.978
C[C@H]1CN([C@@H](C)CO)C(=O)c2cccc(NC(=O)c3cnccn3)c2O[C@@H]1CN(C)S(=O)(=O)c1cccs1 | inactive: 0.984
O=C(C[C@H]1C=C[C@H](NS(=O)(=O)c2ccc(F)cc2)[C@H](CO)O1)NCCN1CCCCC1 | inactive: 1.01
C[C@@H]1CN([C@@H](C)CO)C(=O)c2cc(NC(=O)Nc3cccc4ccccc34)ccc2O[C@@H]1CN(C)Cc1ccc(C(F)(F)F)cc1 | inactive: 1.04
COc1ccc(S(=O)(=O)N(C)C[C@H]2Oc3ccc(NS(=O)(=O)c4cccs4)cc3CC(=O)N([C@H](C)CO)C[C@@H]2C)cc1 | inactive: 1.02
C[C@H](CO)N1C[C@H](C)[C@@H](CN(C)Cc2ccc(Cl)c(Cl)c2)Oc2c(NC(=O)NC3CCCCC3)cccc2C1=O | inactive: 0.918
Cc1noc(C)c1S(=O)(=O)Nc1cccc2c1O[C@H](CN(C)Cc1ccc3c(c1)OCO3)[C@H](C)CN([C@H](C)CO)C2=O | inactive: 1.01
C=CCOC(=O)[C@H]1[C@@H]2C(=O)O[C@@H](c3ccccc3)[C@@H](c3ccccc3)N2[C@@H](c2ccc(OCCOC(=O)[C@H]3C[C@H]4C(=O)N[C@@H](CCCC[N+](C)(C)C)C(=O)N4[C@H]3c3ccc(O)cc3)cc2)[C@]12C(=O)Nc1ccc(I)cc12 | inactive: 1.02
Nc1ncnc2c1ncn2[C@H]1O[C@@H](C(=O)N2CCN(CC(=O)Nc3cccc4c3CNC4=O)CC2)[C@H](O)[C@@H]1O | inactive: 0.981
CC(C)=CCCC(C)C1CCC2(C)C3=C(CCC12C)C1(C)CCC(O)C(C)(C)C1CC3 (configuration not stated) | inactive: 1.07
CC(C)(C)CC(C)(C)c1cc(Cc2cc(C(C)(C)CC(C)(C)C)cc(-n3nc4ccccc4n3)c2O)c(O)c(-n2nc3ccccc3n2)c1 | inactive: 1.06
